Laboratory results from the supplement of paper PMC4967469.
A lower IC50 marks a more sensitive line; a limit (>, <) means that the fit lies beyond the doses tested. The AUC spans the tested range (256-fold, ending at the top dose) of the same fit; it is 1 without any effect and falls as sensitivity rises. For some assays here: Where the top dose is marked as inferred, it comes from the curve model; the source does not state it.

Tests used:
Test in all cases: Viability of human cancer cell lines after 72 h of drug (GDSC screen)
[1] = compound: C=CCNC1=C2C[C@@H](C)C[C@H](OC)[C@H](O)[C@@H](C)/C=C(\C)[C@H](OC(N)=O)[C@@H](OC)/C=C\C=C(/C)C(=O)NC(=CC1=O)C2=O [17-AAG]; conditions: top dose 1 µM
Method: (§1)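 Human cancer cell lines in 384-well plates, medium with 10% serum, drug for 72 h over a 256-fold dose range (nine 2-fold or five 4-fold steps up to the top dose). Adherent lines were fixed and stained with the nucleic acid dye Syto60, suspension lines read with resazurin; signal relative to control wells, capped at 0 and 100%. One two-parameter sigmoid per drug and line, fitted in a mixed model over all curves with the slope shared within a line.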

[2] = compound: CS(=O)(=O)c1ccc(C(=O)Nc2ccc(Cl)c(-c3ccccn3)c2)c(Cl)c1 [Vismodegib]; conditions: top dose 10 µM; top dose inferred
Method: as §1

[3] = compound: Cc1cnc(Nc2ccc(OCCN3CCCC3)cc2)nc1Nc1cccc(S(=O)(=O)NC(C)(C)C)c1 [TG101348]; conditions: top dose 10.24 µM
Method: as §1

[4] = compound: COc1cccc2cc(-c3nc([C@H]4CC[C@H](C(=O)O)CC4)n4ncnc(N)c34)[nH]c12 [OSI-027]; conditions: top dose 20 µM
Method: as §1

[5] = compound: CN(C)Cc1cccc(N=C(c2ccccc2)c2c(O)[nH]c3cc(C(=O)N(C)C)ccc23)c1 [BIX02189]; conditions: top dose 20 µM; top dose inferred
Method: as §1

[6] = compound: O=C(c1ccc(C(=O)N2CCC(N3CCCC3)CC2)c(Nc2ccccc2)c1)N1CCC(N2CCCC2)CC1 [UNC1215]; conditions: top dose 1 µM; top dose inferred
Method: as §1

[7] = compound: COC(=O)CNC(=O)C(=O)OC [Dimethyloxalylglycine]; conditions: top dose 4000 µM; top dose inferred
Method: as §1

[8] = compound: COc1cccc2c1C(=O)c1c(O)c3c(c(O)c1C2=O)C[C@@](O)(C(=O)CO)C[C@@H]3O[C@H]1C[C@H](N)[C@H](O)[C@H](C)O1 [Doxorubicin]; conditions: top dose 1.024 µM
Method: as §1

[9] = compound: Cc1cnc(Nc2ccc(F)cc2Cl)nc1-c1c[nH]c(C(=O)N[C@H](CO)c2cccc(Cl)c2)c1 [VX-11e]; conditions: top dose 5.12 µM; top dose inferred
Method: as §1

[10] = compound: CCc1cc(-c2n[nH]c(C)c2-c2ccc3c(c2)OCCO3)c(O)cc1O [CCT018159]; conditions: top dose 10 µM; top dose inferred
Method: as §1

| Cell Line | AUC [1] | IC50 [1] [µM] | AUC [2] | IC50 [2] [µM] | AUC [3] | IC50 [3] [µM] | AUC [4] | IC50 [4] [µM] | AUC [5] | IC50 [5] [µM] | AUC [6] | IC50 [6] [µM] | AUC [7] | IC50 [7] [µM] | AUC [8] | IC50 [8] [µM] | AUC [9] | IC50 [9] [µM] | AUC [10] | IC50 [10] [µM] |
| --- | --- | --- | --- | --- | --- | --- | --- | --- | --- | --- | --- | --- | --- | --- | --- | --- | --- | --- | --- | --- |
| 42-MG-BA (glioma, adherent) | 0.542 | 0.0818 | 0.983 | > 10 | 0.807 | 5.72 | 0.792 | 9.77 | 0.945 | > 20 | 0.983 | > 1 | 0.775 | 1700 | 0.741 | 0.332 | 0.983 | > 5.12 | 0.876 | > 10 |
| 647-V (bladder, adherent) | 0.972 | > 1 | 0.987 | > 10 | 0.951 | > 10.2 | 0.456 | 0.95 | 0.986 | > 20 | 0.986 | > 1 | 0.342 | 90.9 | 0.39 | 0.0319 | 0.98 | > 5.12 | 0.953 | > 10 |
| 23132-87 (stomach, adherent) | 0.578 | 0.103 | 0.986 | > 10 | 0.901 | > 10.2 | 0.556 | 1.79 | 0.936 | > 20 | 0.98 | > 1 | 0.943 | > 4000 | 0.319 | 0.0196 | 0.921 | > 5.12 | 0.891 | > 10 |
| A3-KAW (B-cell lymphoma, suspension) | 0.963 | > 1 | 0.988 | > 10 | 0.362 | 0.29 | 0.095 | 0.0909 | 0.77 | 6.14 | 0.989 | > 1 | 0.097 | 18.5 | 0.423 | 0.0412 | 0.728 | 1.2 | 0.94 | > 10 |
| A4-Fuk (B-cell lymphoma, suspension) | 0.984 | > 1 | 0.95 | > 10 | 0.891 | > 10.2 | 0.881 | > 20 | 0.851 | 16.4 | 0.978 | > 1 | 0.249 | 45.7 | 0.644 | 0.164 | 0.88 | > 5.12 | 0.939 | > 10 |
| AM-38 (glioma, semi-adherent) | 0.712 | 0.252 | 0.986 | > 10 | 0.865 | 9.39 | 0.322 | 0.394 | 0.917 | > 20 | 0.983 | > 1 | 0.656 | 684 | 0.755 | 0.355 | 0.781 | 2.18 | 0.918 | > 10 |
| ARH-77 (myeloma, suspension) | 0.97 | > 1 | 0.982 | > 10 | 0.736 | 2.92 | 0.208 | 0.18 | 0.903 | > 20 | 0.972 | > 1 | 0.503 | 255 | 0.599 | 0.118 | 0.944 | > 5.12 | 0.968 | > 10 |
| BB30-HNC (head and neck, adherent) | 0.465 | 0.0502 | 0.973 | > 10 | 0.875 | 9.7 | 0.503 | 1.28 | 0.949 | > 20 | 0.984 | > 1 | 0.432 | 164 | 0.327 | 0.0214 | 0.893 | > 5.12 | 0.774 | 3.84 |
| BC-1 (B-cell lymphoma, suspension) | 0.818 | 0.459 | 0.986 | > 10 | 0.579 | 1.02 | 0.087 | < 0.0781 | 0.931 | > 20 | 0.958 | > 1 | 0.329 | 90.4 | 0.55 | 0.0859 | 0.949 | > 5.12 | 0.921 | > 10 |
| BE2-M17 (neuroblastoma, adherent) | 0.9 | > 1 | 0.987 | > 10 | 0.901 | > 10.2 | 0.842 | 14.6 | 0.983 | > 20 | 0.986 | > 1 | 0.84 | 2870 | 0.842 | 0.753 | 0.977 | > 5.12 | 0.958 | > 10 |
| BFTC-905 (bladder, adherent) | 0.784 | 0.363 | 0.959 | > 10 | 0.862 | 6.82 | 0.651 | 3.06 | 0.978 | > 20 | 0.99 | > 1 | 0.654 | 624 | 0.262 | 0.0151 | 0.82 | 2.42 | 0.939 | > 10 |
| BICR22 (head and neck, adherent) | 0.518 | 0.0704 | 0.96 | > 10 | 0.9 | > 10.2 | 0.934 | > 20 | 0.983 | > 20 | 0.98 | > 1 | 0.641 | 654 | 0.813 | 0.659 | 0.971 | > 5.12 | 0.928 | > 10 |
| BICR78 (head and neck, adherent) | 0.588 | 0.114 | 0.955 | > 10 | 0.913 | > 10.2 | 0.848 | 18.6 | 0.971 | > 20 | 0.979 | > 1 | 0.664 | 770 | 0.682 | 0.225 | 0.952 | > 5.12 | 0.843 | 8.75 |
